# Source: the supplement of paper PMC8728848
# The list shows a part of the results.
# B1: BC2L-D C-terminal domain (Burkholderia cenocepacia), Q39MQ9_BURS3 (protein)
# chain: LVIVDAVTLLSAYPEASRDPAAPTVIDGRHLYVVSPGDAAQLGHNDSRLFTGLSPGDQLHLRETALALRAEVSVLFIRFALKDAGIVAPIELEVRDAATAVPDADDLLHPSCRPLKDHYWRSDVLAAGATTCTADFAVCDRDGTVSGYFRWETSIEIAGSQPDTKQPGFKPSSDRNGNFSLPPNTAFKAIFYANAADRQDLKLFIDDAPEPAATFVGNSEDGVRLFTLNSKGGKIRIEASANGRQSATDARLAPLSAGDTVWLGWLGAEDGADADYNDGIVILQWPIT
# Assays:
# Experiment in all cases: glycan array binding signal (z-score within array); higher = stronger binding
# Details in all cases: glycan notation: IUPAC condensed, linker removed
# [1] = molecular target: Neu5Ac(a2-3)[GalNAc(b1-4)]Gal(b1-4)GlcNAc(b1-3)GalNAc
# Outline: (§1)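 The binding signal is a Z-score computed within each array and averaged over linkers. Arrays of the same protein sequence at different concentrations or buffers were also averaged together. Data originate from 3228 arrays in the Consortium for Functional Glycomics database, kept only where the protein sequence was available.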
# [2] = molecular target: Neu5Ac(a2-3)[Neu5Ac(a2-6)]GalNAc
# Outline: as §1
# Neu5Ac(a2-6)Gal = molecular target: Neu5Ac(a2-6)Gal
# Outline: as §1
# [3] = molecular target: Neu5Ac(a2-6)Gal(b1-3)GlcNAc(b1-3)[Gal(b1-4)GlcNAc(b1-6)]Gal(b1-4)Glc
# Outline: as §1
# Neu5Ac(a2-6)Gal(b1-4)Glc = molecular target: Neu5Ac(a2-6)Gal(b1-4)Glc
# Outline: as §1
# [4] = molecular target: Neu5Ac(a2-6)Gal(b1-4)GlcNAc
# Outline: as §1
# [5] = molecular target: Neu5Ac(a2-6)Gal(b1-4)GlcNAc(b1-2)Man(a1-3)Man(b1-4)GlcNAc(b1-4)GlcNAc
# Outline: as §1
# [6] = molecular target: Neu5Ac(a2-6)Gal(b1-4)GlcNAc(b1-2)Man(a1-3)[Gal(b1-4)GlcNAc(b1-2)Man(a1-6)]Man(b1-4)GlcNAc(b1-4)GlcNAc
# Outline: as §1
# [7] = molecular target: Neu5Ac(a2-6)Gal(b1-4)GlcNAc(b1-2)Man(a1-3)[GlcNAc(b1-2)Man(a1-6)]Man(b1-4)GlcNAc(b1-4)GlcNAc
# Outline: as §1
# [8] = molecular target: Neu5Ac(a2-6)Gal(b1-4)GlcNAc(b1-2)Man(a1-3)[GlcNAc(b1-2)Man(b1-4)GlcNAc(b1-2)Man(a1-6)]Man(b1-4)GlcNAc(b1-4)GlcNAc
# Outline: as §1
# [9] = molecular target: Neu5Ac(a2-6)Gal(b1-4)GlcNAc(b1-2)Man(a1-3)[Man(a1-6)]Man(b1-4)GlcNAc(b1-4)GlcNAc
# Outline: as §1
# [10] = molecular target: Neu5Ac(a2-6)Gal(b1-4)GlcNAc(b1-2)Man(a1-3)[Neu5Ac(a2-6)Gal(b1-4)GlcNAc(b1-2)Man(a1-6)]Man(b1-4)GlcNAc(b1-4)GlcNAc
# Outline: as §1
# [11] = molecular target: Neu5Ac(a2-6)Gal(b1-4)GlcNAc(b1-2)Man(a1-6)Man(b1-4)GlcNAc(b1-4)GlcNAc
# Outline: as §1
# [12] = molecular target: Neu5Ac(a2-6)Gal(b1-4)GlcNAc(b1-2)Man(a1-6)[Gal(b1-4)GlcNAc(b1-2)Man(a1-3)]Man(b1-4)GlcNAc(b1-4)GlcNAc
# Outline: as §1
# [13] = molecular target: Neu5Ac(a2-6)Gal(b1-4)GlcNAc(b1-2)Man(a1-6)[GlcNAc(b1-2)Man(a1-3)]Man(b1-4)GlcNAc(b1-4)GlcNAc
# Outline: as §1
# [14] = molecular target: Neu5Ac(a2-6)Gal(b1-4)GlcNAc(b1-2)Man(a1-6)[Man(a1-3)]Man(b1-4)GlcNAc(b1-4)GlcNAc
# Outline: as §1
# [15] = molecular target: Neu5Ac(a2-6)Gal(b1-4)GlcNAc(b1-3)Gal(b1-3)GlcNAc
# Outline: as §1
# [16] = molecular target: Neu5Ac(a2-6)Gal(b1-4)GlcNAc(b1-3)Gal(b1-4)GlcNAc
# Outline: as §1
# [17] = molecular target: Neu5Ac(a2-6)Gal(b1-4)GlcNAc(b1-3)Gal(b1-4)GlcNAc(b1-3)Gal(b1-4)GlcNAc
# Outline: as §1
# [18] = molecular target: Neu5Ac(a2-6)Gal(b1-4)GlcNAc(b1-3)Gal(b1-4)[Fuc(a1-3)]GlcNAc(b1-3)Gal(b1-4)[Fuc(a1-3)]GlcNAc
# Outline: as §1
# [19] = molecular target: Neu5Ac(a2-6)Gal(b1-4)GlcNAc(b1-3)GalNAc
# Outline: as §1
# [20] = molecular target: Neu5Ac(a2-6)Gal(b1-4)GlcNAc6S
# Outline: as §1
# Neu5Ac(a2-6)GalNAc = molecular target: Neu5Ac(a2-6)GalNAc
# Outline: as §1
# [21] = molecular target: Neu5Ac(a2-6)GalNAc(b1-4)GlcNAc
# Outline: as §1
# [22] = molecular target: Neu5Ac(a2-6)GlcNAc(b1-4)GlcNAc
# Outline: as §1
# [23] = molecular target: Neu5Ac(a2-6)GlcNAc(b1-4)GlcNAc(b1-4)GlcNAc
# Outline: as §1
# Neu5Ac(a2-8)Neu5Ac = molecular target: Neu5Ac(a2-8)Neu5Ac
# Outline: as §1
# [24] = molecular target: Neu5Ac(a2-8)Neu5Ac(a2-3)Gal(b1-3)GalNAc(b1-4)[Neu5Ac(a2-8)Neu5Ac(a2-3)]Gal(b1-4)Glc
# Outline: as §1
# [25] = molecular target: Neu5Ac(a2-8)Neu5Ac(a2-3)Gal(b1-4)Glc
# Outline: as §1
# [26] = molecular target: Neu5Ac(a2-8)Neu5Ac(a2-3)[Gal(b1-3)GalNAc(b1-4)]Gal(b1-4)Glc
# Outline: as §1
# [27] = molecular target: Neu5Ac(a2-8)Neu5Ac(a2-3)[GalNAc(b1-4)]Gal(b1-4)Glc
# Outline: as §1
# [28] = molecular target: Neu5Ac(a2-8)Neu5Ac(a2-8)Neu5Ac
# Outline: as §1
# [29] = molecular target: Neu5Ac(a2-8)Neu5Ac(a2-8)Neu5Ac(a2-3)Gal(b1-4)Glc
# Outline: as §1
# [30] = molecular target: Neu5Ac(a2-8)Neu5Ac(a2-8)Neu5Ac(a2-3)[GalNAc(b1-4)]Gal(b1-4)Glc
# Outline: as §1
# [31] = molecular target: Neu5Ac(a2-8)Neu5Ac(a2-8)Neu5Ac(a2-8)Neu5Ac(a2-3)[GalNAc(b1-4)]Gal(b1-4)Glc
# Outline: as §1
# [32] = molecular target: Neu5Ac(b2-6)Gal(b1-4)GlcNAc
# Outline: as §1
# Neu5Ac(b2-6)GalNAc = molecular target: Neu5Ac(b2-6)GalNAc
# Outline: as §1
# [33] = molecular target: Neu5Ac9Ac(a2-3)Gal(b1-3)GlcNAc
# Outline: as §1
# [34] = molecular target: Neu5Ac9Ac(a2-3)Gal(b1-4)GlcNAc
# Outline: as §1
# [35] = molecular target: Neu5Ac9Ac(a2-6)Gal(b1-4)GlcNAc
# Outline: as §1
# [36] = molecular target: Neu5Gc(a2-3)Gal(b1-3)GlcNAc
# Outline: as §1
# [37] = molecular target: Neu5Gc(a2-3)Gal(b1-3)[Fuc(a1-4)]GlcNAc
# Outline: as §1
# Neu5Gc(a2-3)Gal(b1-4)Glc = molecular target: Neu5Gc(a2-3)Gal(b1-4)Glc
# Outline: as §1
# [38] = molecular target: Neu5Gc(a2-3)Gal(b1-4)GlcNAc
# Outline: as §1
# [39] = molecular target: Neu5Gc(a2-3)Gal(b1-4)[Fuc(a1-3)]GlcNAc
# Outline: as §1
# [40] = molecular target: Neu5Gc(a2-6)Gal(b1-4)GlcNAc
# Outline: as §1
# Neu5Gc(a2-6)GalNAc = molecular target: Neu5Gc(a2-6)GalNAc
# Outline: as §1
# [41] = molecular target: Neu5Gc(b2-6)Gal(b1-4)GlcNAc
# Outline: as §1
binder,measurement,setting,value
B1,glycan array binding signal (z-score),[1],-0.171
same,glycan array binding signal (z-score),[2],-0.24
same,glycan array binding signal (z-score),Neu5Ac(a2-6)Gal,-0.246
same,glycan array binding signal (z-score),[3],-0.167
same,glycan array binding signal (z-score),Neu5Ac(a2-6)Gal(b1-4)Glc,-0.242
same,glycan array binding signal (z-score),[4],-0.248
same,glycan array binding signal (z-score),[5],-0.244
same,glycan array binding signal (z-score),[6],-0.241
same,glycan array binding signal (z-score),[7],-0.218
same,glycan array binding signal (z-score),[8],-0.25
same,glycan array binding signal (z-score),[9],0.456
same,glycan array binding signal (z-score),[10],-0.24
same,glycan array binding signal (z-score),[11],-0.241
same,glycan array binding signal (z-score),[12],-0.257
same,glycan array binding signal (z-score),[13],-0.235
same,glycan array binding signal (z-score),[14],1.83
same,glycan array binding signal (z-score),[15],-0.238
same,glycan array binding signal (z-score),[16],-0.233
same,glycan array binding signal (z-score),[17],-0.246
same,glycan array binding signal (z-score),[18],0.003
same,glycan array binding signal (z-score),[19],-0.216
same,glycan array binding signal (z-score),[20],-0.239
same,glycan array binding signal (z-score),Neu5Ac(a2-6)GalNAc,-0.242
same,glycan array binding signal (z-score),[21],-0.243
same,glycan array binding signal (z-score),[22],-0.247
same,glycan array binding signal (z-score),[23],-0.242
same,glycan array binding signal (z-score),Neu5Ac(a2-8)Neu5Ac,-0.242
same,glycan array binding signal (z-score),[24],-0.16
same,glycan array binding signal (z-score),[25],-0.248
same,glycan array binding signal (z-score),[26],-0.162
same,glycan array binding signal (z-score),[27],-0.235
same,glycan array binding signal (z-score),[28],-0.244
same,glycan array binding signal (z-score),[29],-0.247
same,glycan array binding signal (z-score),[30],-0.235
same,glycan array binding signal (z-score),[31],-0.222
same,glycan array binding signal (z-score),[32],-0.248
same,glycan array binding signal (z-score),Neu5Ac(b2-6)GalNAc,-0.247
same,glycan array binding signal (z-score),[33],-0.239
same,glycan array binding signal (z-score),[34],-0.25
same,glycan array binding signal (z-score),[35],-0.243
same,glycan array binding signal (z-score),[36],-0.243
same,glycan array binding signal (z-score),[37],-0.038
same,glycan array binding signal (z-score),Neu5Gc(a2-3)Gal(b1-4)Glc,-0.233
same,glycan array binding signal (z-score),[38],-0.242
same,glycan array binding signal (z-score),[39],-0.236
same,glycan array binding signal (z-score),[40],-0.245
same,glycan array binding signal (z-score),Neu5Gc(a2-6)GalNAc,-0.242
same,glycan array binding signal (z-score),[41],-0.233
